The campaign covered roughly 420,000 compounds. About 64,000 (15%) were called active. The inconclusive results got no clear call from the source; some entries with a clear call stand among them for comparison. The call rests on the fitted dose curve; in most records, active means well fitted inhibition curve with a large enough effect; inconclusive means small, poorly fitted or top-dose-only effect; inactive means flat fitted curve, though single readings scatter. No potency is given beside an inconclusive call; the fits are too rough.
Test: qHTS for Inhibitors of human tyrosyl-DNA phosphodiesterase 1 (TDP1): qHTS in cells in absence of CPT; further: nearly all actives have a fitted effect of over 55% in size
Details: DT40 Tdp1-/- hTDP1 cells, no CPT, ATP luminescence, 48 h; activity change, negative = growth inhibition: at 46.2 µM (top of the series) unless noted
Method in brief: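 Luminescent ATP content (CellTiter-Glo) served as the growth readout. Knockout chicken DT40 cells expressing human TDP1 were exposed to compounds without camptothecin for a minimum 48 hr at 37 °C.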
On the % scale 0 is the no-effect control and ±100 the full control effect; potency means the concentration at half of the fitted maximal effect; tags describe the fitted curve by direction and shape.

Row | SMILES | activity change, negative = growth inhibition | Potency
1 | COc1cccc(CNCCSc2nnnn2C)c1OC | inactive: -1.45% | –
2 | COc1ccc(-c2nc(CS(=O)CC(=O)NC(C)CCc3ccccc3)c(C)o2)cc1OC (stereo not given) | – | inconclusive [inhibitor, single point]
3 | CCC(c1nc2ccccc2[nH]1)N(CCCn1ccnc1)C(=O)c1ccc(C(F)(F)F)cc1 (stereo not given) | inactive: -19.8% | –
4 | CC(=O)N(CCc1cccc(C)c1)Cc1cc2ccc(C)cc2[nH]c1=O | inactive: -10.6% | –
5 | COc1ccc(-c2sc3cc4c(cc3c2C#CCO)OCO4)cc1 | – | inconclusive [inhibitor, single point]
6 | CCC(=O)N1c2ccc(S(=O)(=O)NCCc3ccc(C)cc3)cc2CC1C (stereo not given) | inactive: -8.59% | –
7 | O=C(Nc1ccccc1)C1=C(O)CC(c2ccc(Cl)cc2)N2CCN=C12 (stereo not given) | – | active: 18.4 µM
8 | COc1ccc2nc(NC3=NC(c4ccccc4)CC(=O)N3)nc(C)c2c1 (stereo not given) | – | active: 13 µM
9 | CC1CCCN(Cc2nc(Cc3ccccc3Cl)no2)C1 (stereo not given) | – | inconclusive [inhibitor, single point]
10 | COc1ccc(-c2csc(NC(=O)CCS(=O)(=O)c3ccccc3)n2)c(OC)c1 | – | active: 8.2 µM
11 | O=C(CN1CCCCCC1)Nc1ccc(Oc2ccccc2)cc1 | – | inconclusive [inhibitor, single point]
12 | C=CCC(C(=O)c1ccccc1)[N+](C)(C)CC=C (stereo not given) | – | inconclusive [inhibitor, partial curve]
13 | CCOc1ccccc1NC(=O)CN(c1ccc(C)cc1)S(=O)(=O)c1c(C)n[nH]c1C | – | inconclusive [inhibitor, single point]
14 | COCCCNC(=O)c1ccc(Cn2c(=O)c3ccccc3n(CC(N)=O)c2=O)cc1 | – | inconclusive [inhibitor, single point]
15 | COc1ccc(C(c2nnnn2C(C)(C)C)N2CCN(C/C=C/c3ccccc3)CC2)cc1 (stereo not given) | – | inconclusive [inhibitor, single point]
16 | N#Cc1ccc(C23CC4(C2)[C@H](CN(Cc2ccc(-c5ccccc5)cc2)[C@@H]4c2ccccc2)C3c2ccc(Cl)nc2)cc1 (stereo not given in full) | – | inconclusive [inhibitor, single point]
17 | CC(C)(C)C(=O)Nc1cc(-c2cccc(Br)c2)nn1-c1ccccc1 | – | active: 20.6 µM
18 | O=C1CCCC(O)=C1N=Nc1ccc(Cl)c(Cl)c1 | – | inconclusive [inhibitor, single point]
19 | CC(=O)Nc1cccc(NC(=O)c2cc(-c3ccccn3)nc3ccc(Cl)cc23)c1 | inactive: 2.81% | –
20 | Cc1ccc(S(=O)(=O)N2CN(Cc3ccco3)c3nc4ccccc4nc32)cc1 | – | inconclusive [inhibitor, single point]
21 | O=C(Cc1cccc(C(F)(F)F)c1)NCc1cccc(Cl)c1 | – | inconclusive [inhibitor, single point]
22 | COc1ccc(-c2noc(CCCOc3ccccc3)n2)cc1OC | – | inconclusive [inhibitor, single point]
23 | CN(C)c1ccc(/C=N\Nc2ccccn2)cc1 | – | active: 23.1 µM

Row | SMILES | activity change, negative = growth inhibition | Potency
24 | CCC(=O)N1c2ccccc2CC1C(=O)NCCCN1CCN(c2cc(C)ccc2C)CC1 (stereo not given) | – | inconclusive [inhibitor, single point]
25 | COc1cccc2c(=O)n(CC(=O)Nc3ccc(F)cc3)ccc12 | inactive: -16.5% | –
26 | Cn1c2ccccc2c2cc(C(=O)NNS(=O)(=O)c3ccc(F)cc3)sc21 | – | inconclusive [inhibitor, partial curve]
27 | O=C(NCCCNc1ccnc2cc(Cl)ccc12)c1ccccc1F | – | inconclusive [inhibitor, single point]
28 | C[C@H](CO)N1C[C@H](C)[C@@H](CN(C)S(C)(=O)=O)Oc2ccc(NC(=O)Nc3ccc4c(c3)OCO4)cc2C1=O | inactive: 3.39% | –
29 | COc1ccc(Cc2nnc(NC(=O)Nc3ccc(F)cc3)s2)cc1OC | – | inconclusive [inhibitor, single point]
30 | COC(=O)C1(C)CCC(C(=O)Nc2ccccc2)C1(C)C (stereo not given) | – | inconclusive [inhibitor, partial curve]
31 | CCOC(=O)C1CCCN(C(=O)CC(c2ccccc2)c2ccccc2)C1 (stereo not given) | – | inconclusive [inhibitor, single point]
32 | N#CC1=C(N)Oc2cc(N)ccc2C1c1ccc(Cl)cc1 (stereo not given) | inactive: -0.88% | –
33 | O=C(N[C@@H](Cc1ccccc1)C(=O)OCc1ccccc1)c1nc[nH]c1C(=O)N1CCN(c2ccccc2)CC1 | – | inconclusive [inhibitor, single point]
34 | CC(C)NS(=O)(=O)c1ccc2[nH]c3nc(SCC(=O)Nc4ccc(F)c(F)c4)nnc3c2c1 | – | inconclusive [inhibitor, single point]
35 | Cc1csc2cc(-c3cccc([N+](=O)[O-])c3)c(-c3cccc([N+](=O)[O-])c3)c[n+]12 | inactive: -5.35% | –
36 | Cc1c(NC(=O)COC(=O)C(c2ccc(Cl)cc2)C(C)C)c(=O)n(-c2ccccc2)n1C (stereo not given) | – | inconclusive [inhibitor, single point]
37 | C/C(N)=C(/C#N)C(=O)COC(=O)CCSc1ccccc1Cl | – | inconclusive [inhibitor, partial curve]
38 | O=C(CSC(=S)N1CCCCC1)N1N=CCC1c1ccccc1 (stereo not given) | – | inconclusive [inhibitor, single point]
39 | NC(=O)c1oc2ccccc2c1NC(=O)c1ccco1 | – | inconclusive [inhibitor, partial curve, poor fit]
40 | Oc1[nH]c2ccc(Br)cc2c1N=NC(=S)Nc1ccc(F)cc1 | – | active: 2.91 µM
41 | COc1ccc(CN2CCN(Cc3cn(C)nc3-c3ccccc3)CC2CCO)c(C)c1C (stereo not given) | – | active: 18.4 µM
42 | COc1cccc(CNC(=O)CCl)c1 | inactive: -0.208% | –
43 | O=C(CSCc1ccc(Cl)cc1)N/N=C/c1ccc(Cl)cc1Cl | – | inconclusive [inhibitor, partial curve]
44 | Cc1ccc(-n2c(C)cc(/C=C3/SC(=O)N(CC(=O)N4CCOCC4)C3=O)c2C)nc1 | inactive: -18.3% | –
45 | COc1ccc(/C=N/NC(=O)CN(CCc2ccccc2)S(=O)(=O)c2ccc(NC(C)=O)cc2)cc1OC | – | inconclusive [inhibitor, single point]

Source: PubChem BioAssay AID686978 (National Center for Advancing Translational Sciences (NCATS), 2013)
